Results: PubChem BioAssay AID1814 (Broad Institute, 2009)
The whole screen tested about 300,000 compounds, of which about 22,000 (7.3%) were called active. The shares of active, inactive and inconclusive entries below differ from those in the screen. Rule as the data show it: active = activity score below about -60%; inconclusive = mostly about -28% to -61%; inactive = positive scores.

Experiment: Activators via SNCA 5'UTR binding, MLPCN (AID 1814)
Conditions: alpha-synuclein 5'UTR reporter, activators screen; hits give low values; tested at 7.5 µM
For CC(C)(C)C1C/C(=C/c2ccccn2)C(=O)/C(=C/c2ccccn2)C1 (stereo not drawn), the activity score was inactive: 103%. With Cc1c(C(=O)Nc2cccc([N+](=O)[O-])c2)cnn1-c1ccccc1 the activity score was active: -137%. With CCc1cccc(N=c2c([N+](=O)[O-])nn(-c3ccc(Cl)cc3)n2O)c1 the activity score was inconclusive: -57.2%. In the case of CC1(C)COCN1S(=O)(=O)c1ccc(C(=O)Nc2nnc(-c3ccc(Cl)s3)o2)cc1, the activity score is reported as inactive: 92.4%. With Cc1cccc(CS(=O)(=O)c2ncc(Cl)c(C(=O)NCc3ccccc3)n2)c1 the activity score was inactive: 63.8%. With Cc1ccc(-c2csc(N(CC3CCCO3)C(=O)c3ccco3)n2)cc1 (stereo not drawn) the activity score was inconclusive: -49.5%. In the case of c1ccc(COc2ccc(OCCN3CCCCC3)cc2)cc1, the activity score is reported as inconclusive: -45.5%. For CCOc1ccccc1C(=O)NN1C(=O)CCC1=O, the activity score was inconclusive: -54.8%. For N#Cc1nc(-c2ccccc2)oc1NCc1ccco1, the activity score was inconclusive: -51.3%. For O=C(Nc1cc(F)cc(F)c1)c1sc(Cl)nc1-c1ccccc1, the activity score was inconclusive: -56.6%. With O=C(O)C1=NOC(CNc2ncc(C(F)(F)F)cc2Cl)C1 (stereo not drawn) the activity score was inconclusive: -51.7%. In the case of Cc1occc1C(=O)N/N=C/C=C/c1ccccc1, the activity score is reported as active: -138%. In the case of Fc1ccc(COc2ccc(/C=N/n3cnnc3)cc2)cc1, the activity score is reported as inconclusive: -45.5%. With Cc1nccc(-c2sc(-c3cccs3)nc2C)n1 the activity score was inconclusive: -60.7%. With C/C(=N\NC(=O)CC(C)C)c1c(C(F)(F)F)[nH]n(-c2nc3ccccc3s2)c1=O the activity score was inconclusive: -51.5%. With Cc1ccc(SC/C(O)=C(\C#N)c2nc3ccccc3n2C)cc1 the activity score was inconclusive: -59.8%. With CCOc1cc(C(=S)N2CCOCC2)ccc1OS(=O)(=O)c1ccccc1[N+](=O)[O-] the activity score was inconclusive: -45.5%. With O=c1c([N+](=O)[O-])c(N2CCOCC2)c2ccccc2n1Cc1ccccc1 the activity score was inactive: 46.4%. In the case of Cc1cc(=O)[nH]c2c3ccccc3nn12, the activity score is reported as inconclusive: -51.7%. For CC1=C([N+](=O)[O-])C(c2ccccc2)C2=C(N1)c1ccccc1C2=O (stereo not drawn), the activity score was inactive: 113%. With CN(C)C(=O)c1ccc(NC(=O)c2cncc(Br)c2)cc1 the activity score was inconclusive: -59.4%. In the case of Cc1occc1C(=O)NNC(=S)Nc1cccc([N+](=O)[O-])c1, the activity score is reported as inconclusive: -52.6%. For CSc1cccc(CN2CCN(Cc3ccccc3)C(CCO)C2)c1 (stereo not drawn), the activity score was inconclusive: -41.1%. For CC(C)N1CCc2c(sc(NC(=O)c3nc4ccccc4s3)c2C(N)=O)C1, the activity score was inconclusive: -58%. In the case of FC(F)(F)c1nc2ccccc2n2c(-c3ccc(Cl)cc3)nnc12, the activity score is reported as inactive: 108%. In the case of CC1CC(C)CN(S(=O)(=O)c2ccc(C(=O)NCCCn3ccnc3)cc2)C1 (stereo not drawn), the activity score is reported as inactive: 98.1%. With Cc1ccc(-c2nc3cc(Br)cnc3nc2-c2ccc(C)cc2)cc1 the activity score was inconclusive: -32.7%. For CCC(=O)Nc1cccc(NC(=O)c2ccc3c(c2)OCO3)c1, the activity score was inconclusive: -60.4%. With Cc1nc(Nc2ccc3c(c2)OCO3)c2oc3ccccc3c2n1 the activity score was inconclusive: -48.6%. For COc1ccc2c(c1OC)C(=O)N1c3ccccc3C(=O)N(c3ccccc3F)C21 (stereo not drawn), the activity score was inactive: 60.6%. With O=S(=O)(Nc1cccc(-c2nnco2)c1)c1ccc(F)cc1F the activity score was inconclusive: -43.1%. In the case of Cc1csc(NC(=O)Cc2ccc(Cl)cc2)n1, the activity score is reported as active: -81.4%. In the case of CC(C)c1cc(C(C)C)c(S(=O)(=O)N2c3ccccc3[C@]3(Br)C[C@H]4C(=O)N[C@@H](Cc5ccccc5)C(=O)N4[C@H]23)c(C(C)C)c1, the activity score is reported as inactive: 65%. With Cn1nnnc1N=N/C(=N/Nc1ccccc1)c1ccccc1 the activity score was inactive: 104%. In the case of COC(=O)c1ccc(Oc2cc(C)nc(-n3nc(C)cc3C)n2)cc1, the activity score is reported as inactive: 65.2%. In the case of COc1ccc2nc(-n3c(C)ccc3C)sc2c1, the activity score is reported as active: -62.2%. In the case of Cc1ccc(N2C(=O)c3cccc4c(C(=O)O)ccc(c34)C2=O)cc1, the activity score is reported as inconclusive: -53.5%. In the case of Cc1c(CCC(=O)N2CCC(C(=O)O)CC2)c(=O)oc2cc3oc4c(c3cc12)CCCC4, the activity score is reported as inactive: 74.1%. With COc1ccccc1-c1c(C)nn2c(C)cc(C)nc12 the activity score was inconclusive: -37.2%. With CCC(C)Nc1nnnc2c1sc1nc3c(cc12)COC(C)(C)C3 (stereo not drawn) the activity score was inconclusive: -46.8%. In the case of Cc1ccc2nc(-c3cccnc3)oc2c1, the activity score is reported as active: -80.2%. For COc1ccc(C(=O)N/N=C(\c2ccccc2)c2ccccn2)cc1, the activity score was inactive: 107%. For Oc1ccc(/C=N/Nc2nccnc2Cl)c(O)c1, the activity score was inactive: 87.7%. In the case of CSCCC(Nc1ncnc2ccc(Br)cc12)C(=O)O (stereo not drawn), the activity score is reported as inconclusive: -56.3%. For COCc1cc(C)nc2sc(C(=O)Nc3ccccc3F)c(N)c12, the activity score was active: -81.9%. In the case of O=C(NCc1ccccc1)C(c1ccncc1)N(C(=O)c1ccccn1)c1ccccc1 (stereo not drawn), the activity score is reported as inconclusive: -57.1%. For Cc1ccc(C)c(-c2nc3cc(N)ccc3o2)c1, the activity score was inactive: 62.9%. With Cc1nn(-c2ccccc2)c(N2CCCC2)c1/C=N/NC(=S)Nc1ccccc1F the activity score was inconclusive: -59.7%. With CN(C)CCn1c(=N)n(CC(O)c2ccc(Cl)c(Cl)c2)c2ccccc21 (stereo not drawn) the activity score was inconclusive: -51.3%. For Cc1cccc(C(=O)OCCN2CCOCC2)c1, the activity score was inconclusive: -60%. For CCOC(=O)c1nnn2c1nc(Nc1cccc(C(F)(F)F)c1)c1ccccc12, the activity score was inconclusive: -45.8%. In the case of CC(C)CNS(=O)(=O)c1ccc(C(=O)Nc2ccc3c(c2)OCCO3)cc1, the activity score is reported as active: -98.3%. With Cn1c(N/N=C/c2c[nH]c3ccccc23)nc2ccccc21 the activity score was active: -126%. For N/C(=N\OC(=O)c1cccc(Br)c1)c1ccccn1, the activity score was inactive: 71.8%. With CN[C@H]1CCc2cc(OC)c(OC)c(OC)c2-c2ccc(OC)c(=O)cc21 the activity score was inactive: 90.3%. In the case of Cc1cc(/C=N/n2cnnc2)c(C)n1-c1ccc(OCc2ccc(Cl)cc2Cl)cc1, the activity score is reported as inactive: 113%. For COC(=O)/C(=C1/Oc2cc(C)oc(=O)c2S1)C(F)(F)F, the activity score was inconclusive: -55%. In the case of CCOC(=O)C1(CCOc2ccccc2)CCN(Cc2ccc(O)c(Cl)c2)CC1, the activity score is reported as inactive: 108%.
